From the supplement of paper PMC3334620
Whole data set: some 33,000 sequences, median “E-score (-0.5 to 0.5)” near -0.041, cut for the highest 2% near 0.37. The list shows a part of the results.

Target: T1, Ecm22 (UniProt Q05958)
T1 sequence: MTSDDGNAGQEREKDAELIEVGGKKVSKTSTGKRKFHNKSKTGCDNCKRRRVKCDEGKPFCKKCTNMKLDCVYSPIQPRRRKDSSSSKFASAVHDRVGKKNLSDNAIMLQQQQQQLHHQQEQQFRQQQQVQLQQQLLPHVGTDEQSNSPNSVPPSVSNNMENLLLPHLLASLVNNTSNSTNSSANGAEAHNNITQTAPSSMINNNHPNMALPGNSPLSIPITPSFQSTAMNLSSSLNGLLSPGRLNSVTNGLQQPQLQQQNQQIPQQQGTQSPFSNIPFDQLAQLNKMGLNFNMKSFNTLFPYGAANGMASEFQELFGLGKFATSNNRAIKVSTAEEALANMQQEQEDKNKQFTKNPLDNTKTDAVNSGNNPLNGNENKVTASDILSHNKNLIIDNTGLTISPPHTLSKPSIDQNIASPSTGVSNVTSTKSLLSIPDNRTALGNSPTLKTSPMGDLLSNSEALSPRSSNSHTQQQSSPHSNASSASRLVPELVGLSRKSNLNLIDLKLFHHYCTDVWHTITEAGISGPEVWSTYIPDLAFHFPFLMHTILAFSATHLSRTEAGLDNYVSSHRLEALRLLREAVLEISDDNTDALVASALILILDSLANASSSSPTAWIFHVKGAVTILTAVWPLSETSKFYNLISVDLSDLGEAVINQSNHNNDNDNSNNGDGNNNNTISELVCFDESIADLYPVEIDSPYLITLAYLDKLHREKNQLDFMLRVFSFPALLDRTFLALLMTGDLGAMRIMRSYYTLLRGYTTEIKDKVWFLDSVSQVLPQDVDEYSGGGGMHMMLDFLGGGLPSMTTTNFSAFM
Assay: PBM E-score (8-mer binding enrichment) (E-score (-0.5 to 0.5)); higher = stronger / more preferred TF binding; most listed sequences are background and not binding sites
Conditions: protein concentration: 200 nM; construct: GST-full length
Experimental: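 Universal 'all 10-mer' protein binding microarrays (Agilent AMADID 015681) probed with GST-tagged S. cerevisiae TFs (full-length or DBD) made by in vitro transcription/translation (PURExpress), about 100-200 nM. Bound TF was detected with fluorescent anti-GST. Each ungapped 8-mer (which stands for itself and its reverse complement) is scored by the PBM enrichment score (E-score), a modified Wilcoxon-Mann-Whitney statistic from -0.5 to +0.5, computed with the Universal PBM Analysis Suite. Scale: above 0.35 generally sequence-specific binding.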

Row | Sequence | PBM E-score
1 | ATATATTG | -0.052
2 | GAGCTGAA | -0.0378
3 | AGAGTGCA | -0.0302
4 | GAGTGTCA | -0.0588
5 | TAGACGAA | 0.126
6 | AAGAACCC | -0.0304
7 | CCCAATAC | -0.102
8 | ACCATAAA | 0.0734
9 | GGAGTGTA | 0.0868
10 | ATTTACCC | -0.0622
11 | AACTTGTA | -0.0505
12 | CCCAAGCG | -0.021
13 | GCCCACCA | -0.184
14 | ATTAACAC | 0.0461
15 | CTTTGGTA | -0.352
16 | AGGAACGG | 0.459
17 | CATAACAG | -0.177
18 | CTTAAAGA | -0.0454
19 | GTCCACGA | -0.19
20 | AGCTAATC | -0.00043
21 | TAGCCAGA | -0.0155
22 | GGAGCTAC | -0.0188
23 | ACGCTCGC | 0.27
24 | AGAGTCTG | -0.113
25 | TGTTACAA | 0.0528

Row | Sequence | PBM E-score
26 | GAGATCTA | -0.0319
27 | CATATGAA | -0.13
28 | GTACTCGA | 0.14
29 | AATTGTAA | -0.0176
30 | AGCCCAGC | 0.091
31 | ACAGGGAA | -0.0824
32 | AACAGTGA | -0.127
33 | GTACAGTA | 0.194
34 | CCCCCGCA | -0.115
35 | AGTCACAG | 0.0191
36 | TTACGCAA | 0.115
37 | CAGAAAGG | -0.15
38 | CTGTGTTC | 0.0288
39 | AACGCATA | 0.227
40 | ACCGACGG | 0.196
41 | CGATGGCA | 0.0908
42 | CGCAATAG | 0.116
43 | TCCGAAGA | 0.0982
44 | CAATACCC | -0.109
45 | CAGGGAAG | -0.271
46 | CGGAGAAC | -0.00238
47 | TACGCTCA | 0.0718
48 | GCGTCCAA | -0.187
49 | GTGATAAA | -0.031
50 | TAGCACAA | -0.192

Row | Sequence | PBM E-score
51 | TGGCGAAA | 0.117
52 | CTTCAATA | -0.0277
53 | ACCTCTCC | -0.163
54 | CTTAATAC | 0.0719
55 | CGTCTCAG | -0.109
56 | AAAGATCG | 0.158
57 | GAAGGGAA | -0.24
58 | AACTCGAG | -0.0633
59 | GAATTTGA | -0.0637
60 | GAGAATCC | 0.0471
61 | TAAGACTA | -0.203
62 | CAGATTAC | -0.154
63 | ACGATGTA | 0.314
64 | CAGGGTCC | -0.151
65 | CGATGATA | 0.126
66 | CGAGCGTA | 0.259
67 | CATAGCTC | -0.132
68 | ACAGTGGA | -0.0755
69 | AGAGGTTG | -0.18
70 | GTACCATA | 0.17
71 | AAATAGAC | -0.0415
72 | CGTACGTC | 0.356
73 | AGTTCGCG | 0.185
74 | ATAAAGCG | 0.163
75 | CAGGGTGC | -0.26

Row | Sequence | PBM E-score
76 | AAGCAACA | -0.135
77 | GATGAGAA | -0.0713
78 | CCGTCCGC | -0.141
79 | AACAGAGG | -0.258
80 | ACTCACAC | -0.112
81 | GTCCAAAC | -0.0124
82 | GACGTCCA | -0.161
83 | TATGTTGA | -0.102
84 | CCAGGACA | -0.252
85 | GATGGTCC | -0.0975
86 | ACGCAATA | 0.173
87 | GCTCGAAC | 0.161
88 | ACACTTAC | 0.00534
89 | AGTCAAGG | -0.27
90 | GGCTCCAC | -0.253
91 | GCGAGGAA | 0.258
92 | CTAGAACC | -0.0145
93 | ATCCGCAT | 0.135
94 | GGGCCGAA | -0.133
95 | CGATCTCA | -0.0854
96 | AAACTTGT | 0.0994
97 | CGGTTAGA | 0.242
98 | CCCCGAGG | -0.159
99 | AACGCCCG | 0.108
100 | CATGAAGC | -0.126

Row | Sequence | PBM E-score
101 | ACATTGCA | -0.0655
102 | ACGTTCTG | 0.0273
103 | ATGATCAG | 0.0682
104 | TCGCATCA | 0.3
105 | GAGTATCA | 0.141
106 | CAGTAGTA | 0.102
107 | ATGTGAAA | -0.153
108 | ACCACCAA | -0.284
109 | GCTGTAGA | -0.28
110 | CTCAGTGA | -0.182
111 | AAGTGCTC | -0.15
112 | ACAATTCT | -0.0539
113 | CTAACAGC | -0.0675
114 | AACGCAGT | 0.168
115 | ATAGCCGA | 0.0868
116 | TCGTCCCA | -0.076
117 | ATTTGTAA | -0.0415
118 | AATATATA | 0.177
119 | CAGCCCTA | -0.158
120 | CATAGACC | -0.0554
121 | ATGCTGTA | 0.0259
122 | GAGTATCC | 0.062
123 | GGGTTCAC | -0.0635
124 | GGGATCTA | -0.0574
125 | AGTAATGG | -0.00096

Row | Sequence | PBM E-score
126 | ATGGTTGG | -0.0232
127 | AGGACCCG | -0.0518
128 | ATTTCGTG | 0.0706
129 | GAACCTTA | -0.2
130 | CTTCTACA | -0.0781
131 | CGCCAACA | -0.0109
132 | CTTGTAAA | -0.00071
133 | GCAGGGAA | -5e-05
134 | AATCGGAA | 0.0232
135 | AGCTTCCT | -0.0503
136 | AAAACCGT | -0.00949
137 | GGGGAGGA | -0.197
138 | GCGTACCC | 0.229
139 | ACCTTTAT | -0.179
140 | AGGAGACA | -0.0271
141 | CTGGGTTC | -0.16
142 | GTAAGAGA | 0.0595
143 | CAATTCGC | 0.0698
144 | GCATCGGC | -0.101
145 | GGCGGAGA | -0.00921
146 | GTCTAAGA | -0.0187
147 | GTAGGTTA | 0.0849
148 | GTAATGAC | 0.0869
149 | CTCTATTC | 0.0634
150 | GTTTTACA | -0.0364

Row | Sequence | PBM E-score
151 | ATCCACGC | -0.0615
152 | ACGTGCTA | 0.0993
153 | CACTGCGA | 0.073
154 | CTTCTCAA | -0.0793
155 | CGTAGAGA | 0.189
156 | CTCGCCGC | -0.0455
157 | AACCCGAG | 0.267
158 | CGATATAC | 0.312
159 | GGTCCCTA | -0.161
160 | ACCGGAGA | 0.0128
161 | CTGTCGTA | 0.453
162 | GCCCTCAA | -0.275
163 | CCGAAGAC | 0.0182
164 | CGCGTTGA | 0.0778
165 | CTCTAGCC | -0.105
166 | ATCCAGGC | -0.295
167 | GGAAGCCC | -0.0852
168 | AAACACTA | 0.13
169 | GTATACCA | 0.15
170 | AAAAGGGA | -0.0769
171 | CGGCTAAA | 0.0996
172 | GACGCGTC | 0.0262
